Measured values published in a compilation of properties of binary mixtures (doi:10.1007/s10953-005-5594-7).
The densities may have been worked out from excess volumes.

Assay: xn = mol fraction of the nth substance listed
Details: 298.15 K, 101.3 kPa

CCCC[n+]1ccn(C)c1.F[P-](F)(F)(F)(F)F + CC(C)=O
Details | mass density [kg/m3]
x2 = 0 | 1367.9
x2 = 0.1147 | 1345.3
x2 = 0.198 | 1326.7
x2 = 0.2923 | 1302.5
x2 = 0.4035 | 1267.2
x2 = 0.4993 | 1231.1
x2 = 0.5495 | 1209.4
x2 = 0.6519 | 1156.2
x2 = 0.6989 | 1127.3
x2 = 0.8956 | 946.8
x2 = 0.9481 | 874.3

CCCC[n+]1ccn(C)c1.F[P-](F)(F)(F)(F)F + CCC(=O)CC
Details | mass density [kg/m3]
x2 = 0 | 1367.9

CCCC[n+]1ccn(C)c1.F[P-](F)(F)(F)(F)F + CCC(C)=O
Details | mass density [kg/m3]
x2 = 0 | 1367.9
x2 = 0.0995 | 1343.9
x2 = 0.2007 | 1317.5
x2 = 0.5002 | 1210.2
x2 = 0.5506 | 1186.1
x2 = 0.5988 | 1161.3
x2 = 0.7023 | 1098.2
x2 = 0.8004 | 1024
x2 = 0.9027 | 925.1
x2 = 0.9487 | 872.3

CC(C)=O + CCCC[n+]1ccn(C)c1.F[P-](F)(F)(F)(F)F
Details | mass density [kg/m3]
x1 = 1 | 784.9

CCC(=O)CC + CCCC[n+]1ccn(C)c1.F[P-](F)(F)(F)(F)F
Details | mass density [kg/m3]
x1 = 0.1088 | 1336.5
x1 = 0.3986 | 1236.6
x1 = 0.4491 | 1214.9
x1 = 0.5503 | 1165.7
x1 = 0.601 | 1138.7
x1 = 0.6983 | 1080.2
x1 = 0.8007 | 1006.4
x1 = 0.9019 | 917.9
x1 = 0.948 | 870.9
x1 = 1 | 810.9

CCC(C)=O + CCCC[n+]1ccn(C)c1.F[P-](F)(F)(F)(F)F
Details | mass density [kg/m3]
x1 = 1 | 799.7

CCOC(C)=O + CCCC[n+]1ccn(C)c1.F[P-](F)(F)(F)(F)F
Details | mass density [kg/m3]
x1 = 1 | 894.6

O=C1CCCC1 + CCCC[n+]1ccn(C)c1.F[P-](F)(F)(F)(F)F
Details | mass density [kg/m3]
x1 = 0.1883 | 1330.7
x1 = 0.4475 | 1264.2
x1 = 0.5025 | 1246.3
x1 = 0.6034 | 1210.9
x1 = 0.6502 | 1188.6
x1 = 0.7011 | 1163.9
x1 = 0.8041 | 1106
x1 = 0.8982 | 1039.4
x1 = 0.9518 | 991
x1 = 1 | 943.9

CCCC[n+]1ccn(C)c1.F[P-](F)(F)(F)(F)F + CCOC(C)=O
Details | mass density [kg/m3]
x2 = 0 | 1367.9
x2 = 0.0937 | 1347.9
x2 = 0.1914 | 1325.6
x2 = 0.2918 | 1297.9
x2 = 0.3944 | 1267.1
x2 = 0.4485 | 1249.5
x2 = 0.4967 | 1231.7
x2 = 0.5529 | 1209.2
x2 = 0.6039 | 1186.5
x2 = 0.7092 | 1131
x2 = 0.8037 | 1070.8
x2 = 0.898 | 996.5
x2 = 0.9504 | 947.5
